± gives the standard deviation of the averaged measurements. Restriction of a single-cycle SIVsab GFP reporter by TRIM5α v1-loop variants in CRFK cells. Human variants: read share among cells still uninfected after two challenges over input, higher = gained restriction. Rhesus variants: share among infected cells over input, higher = lost restriction. Reporter dose not given per row. No active / inactive call per row; the paper calls a change when both replicates lie above its controls (mean + 2 SD of stop or wild-type variants, or the top frameshift score). Residues outside the varied loop are taken from Swiss-Prot. The paper reads the human single-substitution scores as noise; they and the rhesus combinations repeat poorly (rank correlation 0.3 to 0.4), indel scores repeat only for the top variants, rhesus substitutions well (0.9).

For this series, the system named is SIVsab (simian immunodeficiency virus of sabaeus monkeys), single-cycle GFP reporter, in CRFK cells. Nature of the series: enrichment among uninfected cells over input (fold); higher = stronger restriction. Particulars: library: human / rhesus combinations. As to the method:
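Pools of CRFK cells expressing variants of the TRIM5α v1 loop were challenged with the single-cycle reporter, sorted by GFP and sequenced; mean of two replicates.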
Turning to “MASGILVNVKEEVTCPICLELLTQPLSLDCGHSFCQACLTANHKKSMLDKGESSCPVCRISYQPENIRPNRHVANIVEKLREVKLSPEGQKVDHCARHGEKLLLFCQEDGKVICWLCERSQEHRGHHTFLTEEVAREYQVKLQAALEMLRQKQQEAEELEADIREEKASWKTQIQYDKTNVLADFEQLRDILDWEESNELQNLEKEEEDILKSLTNSETEMVQQTQSLRELISDLEHRLQGSVMELLQGVDGVIKRTENVTLKKPETFPKNQRRVFRAPDLKGMLEVFRELTDVRRYWVDVTVAPNNISCAVISEDKRQVSSPKPQIIYQARGTLYTFQSLTNFNYCTGILGSQSITSGKHYWEVDVSKKTAWILGVCAGFQPDAMCNIEKNENYQPKYGYWVIGLEEGVKCSAFQDSSFHTPSVPFIVPLSVIICPDRVGVFLDYEACTVSFFNITNHGFLIYKFSHCSFSQPVFPYLNPRKCGVPMTLCSPSS [human TRIM5α, 330-340 = QARGTLYTFQSLT]”, the enrichment turned out to be 0.224 ± 0.06. As to “MASGILVNVKEEVTCPICLELLTQPLSLDCGHSFCQACLTANHKKSMLDKGESSCPVCRISYQPENIRPNRHVANIVEKLREVKLSPEGQKVDHCARHGEKLLLFCQEDGKVICWLCERSQEHRGHHTFLTEEVAREYQVKLQAALEMLRQKQQEAEELEADIREEKASWKTQIQYDKTNVLADFEQLRDILDWEESNELQNLEKEEEDILKSLTNSETEMVQQTQSLRELISDLEHRLQGSVMELLQGVDGVIKRTENVTLKKPETFPKNQRRVFRAPDLKGMLEVFRELTDVRRYWVDVTVAPNNISCAVISEDKRQVSSPKPQIIYQARGTLYTFQSLVNFNYCTGILGSQSITSGKHYWEVDVSKKTAWILGVCAGFQPDAMCNIEKNENYQPKYGYWVIGLEEGVKCSAFQDSSFHTPSVPFIVPLSVIICPDRVGVFLDYEACTVSFFNITNHGFLIYKFSHCSFSQPVFPYLNPRKCGVPMTLCSPSS [human TRIM5α, 330-340 = QARGTLYTFQSLV]”, the enrichment turned out to be 0.214 ± 0.035. Next, “MASGILVNVKEEVTCPICLELLTQPLSLDCGHSFCQACLTANHKKSMLDKGESSCPVCRISYQPENIRPNRHVANIVEKLREVKLSPEGQKVDHCARHGEKLLLFCQEDGKVICWLCERSQEHRGHHTFLTEEVAREYQVKLQAALEMLRQKQQEAEELEADIREEKASWKTQIQYDKTNVLADFEQLRDILDWEESNELQNLEKEEEDILKSLTNSETEMVQQTQSLRELISDLEHRLQGSVMELLQGVDGVIKRTENVTLKKPETFPKNQRRVFRAPDLKGMLEVFRELTDVRRYWVDVTVAPNNISCAVISEDKRQVSSPKPQIIYQARGTLYTFQTFTNFNYCTGILGSQSITSGKHYWEVDVSKKTAWILGVCAGFQPDAMCNIEKNENYQPKYGYWVIGLEEGVKCSAFQDSSFHTPSVPFIVPLSVIICPDRVGVFLDYEACTVSFFNITNHGFLIYKFSHCSFSQPVFPYLNPRKCGVPMTLCSPSS [human TRIM5α, 330-340 = QARGTLYTFQTFT]”: 0.207 ± 0.12; “MASGILVNVKEEVTCPICLELLTQPLSLDCGHSFCQACLTANHKKSMLDKGESSCPVCRISYQPENIRPNRHVANIVEKLREVKLSPEGQKVDHCARHGEKLLLFCQEDGKVICWLCERSQEHRGHHTFLTEEVAREYQVKLQAALEMLRQKQQEAEELEADIREEKASWKTQIQYDKTNVLADFEQLRDILDWEESNELQNLEKEEEDILKSLTNSETEMVQQTQSLRELISDLEHRLQGSVMELLQGVDGVIKRTENVTLKKPETFPKNQRRVFRAPDLKGMLEVFRELTDVRRYWVDVTVAPNNISCAVISEDKRQVSSPKPQIIYQARGTLYTFQTFVNFNYCTGILGSQSITSGKHYWEVDVSKKTAWILGVCAGFQPDAMCNIEKNENYQPKYGYWVIGLEEGVKCSAFQDSSFHTPSVPFIVPLSVIICPDRVGVFLDYEACTVSFFNITNHGFLIYKFSHCSFSQPVFPYLNPRKCGVPMTLCSPSS [human TRIM5α, 330-340 = QARGTLYTFQTFV]”: 0.0548 ± 0.022.

On to “MASGILVNVKEEVTCPICLELLTQPLSLDCGHSFCQACLTANHKKSMLDKGESSCPVCRISYQPENIRPNRHVANIVEKLREVKLSPEGQKVDHCARHGEKLLLFCQEDGKVICWLCERSQEHRGHHTFLTEEVAREYQVKLQAALEMLRQKQQEAEELEADIREEKASWKTQIQYDKTNVLADFEQLRDILDWEESNELQNLEKEEEDILKSLTNSETEMVQQTQSLRELISDLEHRLQGSVMELLQGVDGVIKRTENVTLKKPETFPKNQRRVFRAPDLKGMLEVFRELTDVRRYWVDVTVAPNNISCAVISEDKRQVSSPKPQIIYQARGTLYTFQTLTNFNYCTGILGSQSITSGKHYWEVDVSKKTAWILGVCAGFQPDAMCNIEKNENYQPKYGYWVIGLEEGVKCSAFQDSSFHTPSVPFIVPLSVIICPDRVGVFLDYEACTVSFFNITNHGFLIYKFSHCSFSQPVFPYLNPRKCGVPMTLCSPSS [human TRIM5α, 330-340 = QARGTLYTFQTLT]”, for which the enrichment was determined as 0.113 ± 0.11.

As for “MASGILVNVKEEVTCPICLELLTQPLSLDCGHSFCQACLTANHKKSMLDKGESSCPVCRISYQPENIRPNRHVANIVEKLREVKLSPEGQKVDHCARHGEKLLLFCQEDGKVICWLCERSQEHRGHHTFLTEEVAREYQVKLQAALEMLRQKQQEAEELEADIREEKASWKTQIQYDKTNVLADFEQLRDILDWEESNELQNLEKEEEDILKSLTNSETEMVQQTQSLRELISDLEHRLQGSVMELLQGVDGVIKRTENVTLKKPETFPKNQRRVFRAPDLKGMLEVFRELTDVRRYWVDVTVAPNNISCAVISEDKRQVSSPKPQIIYQARGTLYTFQTLVNFNYCTGILGSQSITSGKHYWEVDVSKKTAWILGVCAGFQPDAMCNIEKNENYQPKYGYWVIGLEEGVKCSAFQDSSFHTPSVPFIVPLSVIICPDRVGVFLDYEACTVSFFNITNHGFLIYKFSHCSFSQPVFPYLNPRKCGVPMTLCSPSS [human TRIM5α, 330-340 = QARGTLYTFQTLV]”, the enrichment was 0.0292 ± 0.0089. Next, “MASGILVNVKEEVTCPICLELLTQPLSLDCGHSFCQACLTANHKKSMLDKGESSCPVCRISYQPENIRPNRHVANIVEKLREVKLSPEGQKVDHCARHGEKLLLFCQEDGKVICWLCERSQEHRGHHTFLTEEVAREYQVKLQAALEMLRQKQQEAEELEADIREEKASWKTQIQYDKTNVLADFEQLRDILDWEESNELQNLEKEEEDILKSLTNSETEMVQQTQSLRELISDLEHRLQGSVMELLQGVDGVIKRTENVTLKKPETFPKNQRRVFRAPDLKGMLEVFRELTDVRRYWVDVTVAPNNISCAVISEDKRQVSSPKPQIIYQARGTRFPSFVNFNYCTGILGSQSITSGKHYWEVDVSKKTAWILGVCAGFQPDAMCNIEKNENYQPKYGYWVIGLEEGVKCSAFQDSSFHTPSVPFIVPLSVIICPDRVGVFLDYEACTVSFFNITNHGFLIYKFSHCSFSQPVFPYLNPRKCGVPMTLCSPSS [human TRIM5α, 330-340 = QARGTRFPSFV]”: 0.0935 ± 0.13. Take “MASGILVNVKEEVTCPICLELLTQPLSLDCGHSFCQACLTANHKKSMLDKGESSCPVCRISYQPENIRPNRHVANIVEKLREVKLSPEGQKVDHCARHGEKLLLFCQEDGKVICWLCERSQEHRGHHTFLTEEVAREYQVKLQAALEMLRQKQQEAEELEADIREEKASWKTQIQYDKTNVLADFEQLRDILDWEESNELQNLEKEEEDILKSLTNSETEMVQQTQSLRELISDLEHRLQGSVMELLQGVDGVIKRTENVTLKKPETFPKNQRRVFRAPDLKGMLEVFRELTDVRRYWVDVTVAPNNISCAVISEDKRQVSSPKPQIIYQARGTRFPSLVNFNYCTGILGSQSITSGKHYWEVDVSKKTAWILGVCAGFQPDAMCNIEKNENYQPKYGYWVIGLEEGVKCSAFQDSSFHTPSVPFIVPLSVIICPDRVGVFLDYEACTVSFFNITNHGFLIYKFSHCSFSQPVFPYLNPRKCGVPMTLCSPSS [human TRIM5α, 330-340 = QARGTRFPSLV]”: the enrichment was 0.207 ± 0.1. For “MASGILVNVKEEVTCPICLELLTQPLSLDCGHSFCQACLTANHKKSMLDKGESSCPVCRISYQPENIRPNRHVANIVEKLREVKLSPEGQKVDHCARHGEKLLLFCQEDGKVICWLCERSQEHRGHHTFLTEEVAREYQVKLQAALEMLRQKQQEAEELEADIREEKASWKTQIQYDKTNVLADFEQLRDILDWEESNELQNLEKEEEDILKSLTNSETEMVQQTQSLRELISDLEHRLQGSVMELLQGVDGVIKRTENVTLKKPETFPKNQRRVFRAPDLKGMLEVFRELTDVRRYWVDVTVAPNNISCAVISEDKRQVSSPKPQIIYQARGTRFPTFVNFNYCTGILGSQSITSGKHYWEVDVSKKTAWILGVCAGFQPDAMCNIEKNENYQPKYGYWVIGLEEGVKCSAFQDSSFHTPSVPFIVPLSVIICPDRVGVFLDYEACTVSFFNITNHGFLIYKFSHCSFSQPVFPYLNPRKCGVPMTLCSPSS [human TRIM5α, 330-340 = QARGTRFPTFV]”, the enrichment amounted to 0.00105 ± 0.00069. “MASGILVNVKEEVTCPICLELLTQPLSLDCGHSFCQACLTANHKKSMLDKGESSCPVCRISYQPENIRPNRHVANIVEKLREVKLSPEGQKVDHCARHGEKLLLFCQEDGKVICWLCERSQEHRGHHTFLTEEVAREYQVKLQAALEMLRQKQQEAEELEADIREEKASWKTQIQYDKTNVLADFEQLRDILDWEESNELQNLEKEEEDILKSLTNSETEMVQQTQSLRELISDLEHRLQGSVMELLQGVDGVIKRTENVTLKKPETFPKNQRRVFRAPDLKGMLEVFRELTDVRRYWVDVTVAPNNISCAVISEDKRQVSSPKPQIIYQARGTRFPTLVNFNYCTGILGSQSITSGKHYWEVDVSKKTAWILGVCAGFQPDAMCNIEKNENYQPKYGYWVIGLEEGVKCSAFQDSSFHTPSVPFIVPLSVIICPDRVGVFLDYEACTVSFFNITNHGFLIYKFSHCSFSQPVFPYLNPRKCGVPMTLCSPSS [human TRIM5α, 330-340 = QARGTRFPTLV]”: the enrichment stood at 0.628 ± 0.89. As for “MASGILVNVKEEVTCPICLELLTQPLSLDCGHSFCQACLTANHKKSMLDKGESSCPVCRISYQPENIRPNRHVANIVEKLREVKLSPEGQKVDHCARHGEKLLLFCQEDGKVICWLCERSQEHRGHHTFLTEEVAREYQVKLQAALEMLRQKQQEAEELEADIREEKASWKTQIQYDKTNVLADFEQLRDILDWEESNELQNLEKEEEDILKSLTNSETEMVQQTQSLRELISDLEHRLQGSVMELLQGVDGVIKRTENVTLKKPETFPKNQRRVFRAPDLKGMLEVFRELTDVRRYWVDVTVAPNNISCAVISEDKRQVSSPKPQIIYQARGTRFQSFVNFNYCTGILGSQSITSGKHYWEVDVSKKTAWILGVCAGFQPDAMCNIEKNENYQPKYGYWVIGLEEGVKCSAFQDSSFHTPSVPFIVPLSVIICPDRVGVFLDYEACTVSFFNITNHGFLIYKFSHCSFSQPVFPYLNPRKCGVPMTLCSPSS [human TRIM5α, 330-340 = QARGTRFQSFV]”, the enrichment was 0.00168 ± 0.0012. For the sequence “MASGILVNVKEEVTCPICLELLTQPLSLDCGHSFCQACLTANHKKSMLDKGESSCPVCRISYQPENIRPNRHVANIVEKLREVKLSPEGQKVDHCARHGEKLLLFCQEDGKVICWLCERSQEHRGHHTFLTEEVAREYQVKLQAALEMLRQKQQEAEELEADIREEKASWKTQIQYDKTNVLADFEQLRDILDWEESNELQNLEKEEEDILKSLTNSETEMVQQTQSLRELISDLEHRLQGSVMELLQGVDGVIKRTENVTLKKPETFPKNQRRVFRAPDLKGMLEVFRELTDVRRYWVDVTVAPNNISCAVISEDKRQVSSPKPQIIYQARGTRFQSLVNFNYCTGILGSQSITSGKHYWEVDVSKKTAWILGVCAGFQPDAMCNIEKNENYQPKYGYWVIGLEEGVKCSAFQDSSFHTPSVPFIVPLSVIICPDRVGVFLDYEACTVSFFNITNHGFLIYKFSHCSFSQPVFPYLNPRKCGVPMTLCSPSS [human TRIM5α, 330-340 = QARGTRFQSLV]”, the enrichment was determined as 0.277 ± 0.39.

Values taken from the supplement of paper PMC12230231.
